# Reference: PubChem BioAssay AID504332 (National Center for Advancing Translational Sciences (NCATS), 2011)
# In all, about 350,000 compounds went through this assay and about 31,000 (8.9%) were called active. The shares of active, inactive and inconclusive entries below differ from those in the screen. The call rests on the fitted dose curve; in most records, active means well fitted inhibition curve with a large enough effect; inconclusive means small, poorly fitted or top-dose-only effect; inactive means no such curve, though single readings can be large or run the other way. A potency beside an inconclusive call is a rough fit, not a confirmed value.
# Biological target: Histone-lysine N-methyltransferase EHMT2 (Homo sapiens) (UniProt Q96KQ7)
# Sequence of UniProt Q96KQ7 (Q96KQ7 whole entry, looked up): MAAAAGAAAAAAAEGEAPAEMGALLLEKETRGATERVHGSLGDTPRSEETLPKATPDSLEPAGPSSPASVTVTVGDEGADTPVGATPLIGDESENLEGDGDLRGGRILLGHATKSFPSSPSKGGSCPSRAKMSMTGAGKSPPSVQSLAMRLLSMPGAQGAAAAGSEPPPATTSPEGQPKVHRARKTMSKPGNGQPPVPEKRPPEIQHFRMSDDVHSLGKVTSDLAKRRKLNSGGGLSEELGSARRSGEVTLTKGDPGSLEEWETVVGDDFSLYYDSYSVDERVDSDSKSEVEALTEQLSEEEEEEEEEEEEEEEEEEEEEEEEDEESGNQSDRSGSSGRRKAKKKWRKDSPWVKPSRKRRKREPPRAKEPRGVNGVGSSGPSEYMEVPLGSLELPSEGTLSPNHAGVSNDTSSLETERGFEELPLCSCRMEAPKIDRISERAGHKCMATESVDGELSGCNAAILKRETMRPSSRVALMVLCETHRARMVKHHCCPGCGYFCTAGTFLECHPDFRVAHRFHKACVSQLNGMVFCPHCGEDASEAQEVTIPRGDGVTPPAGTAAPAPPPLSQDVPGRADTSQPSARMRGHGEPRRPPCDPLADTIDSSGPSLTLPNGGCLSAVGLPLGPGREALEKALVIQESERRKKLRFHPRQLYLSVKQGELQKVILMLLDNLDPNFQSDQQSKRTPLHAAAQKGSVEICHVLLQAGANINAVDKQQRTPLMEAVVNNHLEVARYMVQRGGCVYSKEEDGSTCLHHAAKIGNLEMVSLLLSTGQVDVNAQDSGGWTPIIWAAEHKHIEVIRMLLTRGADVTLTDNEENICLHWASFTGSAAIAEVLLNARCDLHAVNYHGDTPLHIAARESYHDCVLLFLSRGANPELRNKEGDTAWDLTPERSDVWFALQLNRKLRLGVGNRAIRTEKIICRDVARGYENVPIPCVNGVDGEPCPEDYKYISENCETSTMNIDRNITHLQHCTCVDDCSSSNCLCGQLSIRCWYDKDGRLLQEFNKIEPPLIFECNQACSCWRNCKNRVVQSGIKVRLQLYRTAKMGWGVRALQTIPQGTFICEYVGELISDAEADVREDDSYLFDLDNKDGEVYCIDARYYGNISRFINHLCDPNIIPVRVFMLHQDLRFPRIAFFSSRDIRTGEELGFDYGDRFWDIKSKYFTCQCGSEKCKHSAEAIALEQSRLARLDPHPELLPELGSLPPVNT
# Test: qHTS Assay for Inhibitors of Histone Lysine Methyltransferase G9a; further: nearly all actives have a fitted effect of over 75% in size
# Conditions: G9a H3K9 monomethylation, AlphaScreen, 2 h; activity, negative = inhibition: at 59 µM (top of the series) unless noted
# Summary of the method: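 Signal arises when biotinylated H3K9 peptide, once monomethylated, bridges streptavidin donor and antibody-captured acceptor beads. Enzyme at 20 nM was preincubated 15 min with test compounds; peptide 500 nM and SAM 20 uM then reacted for 2 h.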
# On the % scale 0 is the no-effect control and ±100 the full control effect; potency means the concentration at half of the fitted maximal effect; tags describe the fitted curve by direction and shape.
Compound,"activity, negative = inhibition",Potency
CCOc1ccc(CNC(=O)C2Cc3ccccc3N2C(=O)CC)cc1OC (stereo not given),inactive: 17.4%,
CCCc1nn2c(=O)cc(COC(=O)c3ccccc3NC(=O)COc3ccccc3F)nc2s1,inactive: 5.4% [at 12.7 µM],
Cc1nc(N2CCN(C)CC2)c2cc(-c3ccccc3)sc2n1,,active: 50.1 µM
CC(NC(=O)c1cc(S(=O)(=O)N2CCOCC2)cn1C)c1ccccc1 (stereo not given),,"inconclusive: 89.1 µM [inhibitor, single point]"
C=CC(=O)O,,"inconclusive: 5.62 µM [inhibitor, single point]"
COc1cc2ccccc2cc1C(=O)Nc1ccccc1N1CCCC1,,"inconclusive: 7.08 µM [inhibitor, partial curve, poor fit]"
Nc1c(-c2ccccc2)c(CN2CCOCC2)nn1-c1ccc(F)cc1,,active: 20 µM
CC(C)(C)OC(=O)N[C@@H](Cc1ccccc1)C(=O)NCC1CCC(C(=O)N[C@@H](CCC(N)=O)C(=O)O)CC1 (stereo not given in full),,"inconclusive: 89.1 µM [inhibitor, single point]"
Cc1cc(C)c(C)c(S(=O)(=O)N2CCCN(C)CC2)c1C,,"inconclusive: 89.1 µM [inhibitor, single point]"
O=C(CN1CCN(c2ccc(O)cc2)CC1)Nc1ccc2c(c1)OCCCO2,,"inconclusive: 7.08 µM [inhibitor, partial curve, poor fit]"
Cc1ccc(CC(CC(=O)Nc2cccc(C(F)(F)F)c2)C(=O)O)cc1 (stereo not given),,"inconclusive: 35.5 µM [inhibitor, partial curve, poor fit]"
CCn1c(CCc2ccccc2)n[nH]c1=S,inactive: 26.7% [at 0.501 µM],
O=C(N/N=C/c1cn(-c2cccs2)nc1-c1ccccc1)c1ccccc1O,inactive: 5.69% [at 102 µM],
COc1ccccc1CNC(=O)c1ccc(CS(=O)(=O)c2ccc(C)cc2)o1,inactive: -16.1% [at 102 µM],
CC(=O)c1cc2c(cc1N)OCO2,,"inconclusive: 50.1 µM [inhibitor, partial curve, poor fit]"
COc1ccc(CCNc2ccc(N3C(=O)CC(C)C3=O)cc2[N+](=O)[O-])cc1OC (stereo not given),,active: 31.6 µM
Cc1cccc(N2CCN(S(=O)(=O)c3ccc4[nH]c(=O)c(=O)[nH]c4c3)CC2C)c1 (stereo not given),,"inconclusive: 79.4 µM [inhibitor, single point]"
CCn1c(SCC(=O)c2ccccc2)nnc1-c1ccoc1C,inactive: -26.9% [at 102 µM],
CC(C)(C)c1ccc(OCc2ccc(C(=O)NN)o2)cc1,inactive: 44.4%,
O=C1NC(=S)S/C1=C/c1ccc(OC(=O)c2ccco2)cc1,inactive: -2.87% [at 102 µM],
CCOc1ccc(-n2cc(-c3ccccc3)c3c(N4CCOCC4)ncnc32)cc1,inconclusive: -76.7% [inhibitor],
COc1ccc(C2NCCn3cccc32)cc1 (stereo not given),,"inconclusive: 22.4 µM [inhibitor, single point]"
O=C(CSc1nnc(NC2CCCCC2)s1)N1CCOCC1,,"inconclusive: 7.94 µM [inhibitor, single point]"
CCc1cccc(C)c1NC(=O)C1CN(S(=O)(=O)c2ccccc2)CCN1S(=O)(=O)c1ccccc1 (stereo not given),,"inconclusive: 89.1 µM [inhibitor, single point]"

Compound,"activity, negative = inhibition",Potency
COc1ccc(NC(=O)CN(C)C(=O)Cc2ccc3c(c2)CCC3)cc1,,active: 50.1 µM
COc1cc(NC(=S)N2CCCC(CO)C2)cc(OC)c1 (stereo not given),,"inconclusive: 50.1 µM [inhibitor, partial curve, poor fit]"
Cc1cc(NC(=O)CSc2nc(-c3ccco3)cc(C(F)(F)F)n2)n(-c2ccccc2)n1,,"inconclusive: 15.8 µM [inhibitor, partial curve, poor fit]"
Cc1[nH]c(=O)[nH]c(=O)c1CSCC(=O)OCC(=O)Nc1ccccn1,,"inconclusive: 70.8 µM [inhibitor, partial curve]"
CCCCCCOc1ccc(C(=N)N(CCCC)CCCC)c2ccccc12,,"inconclusive: 1.78 µM [inhibitor, partial curve, poor fit]"
COc1ccc2nc(NC(=O)CCNC(=O)c3ccco3)sc2c1,,"inconclusive: 28.2 µM [inhibitor, single point]"
CCOC(=O)C(NC(=O)c1ccccc1)(OCC1(CC)COC1)C(F)(F)F (stereo not given),inactive: 2.12%,
O=C(O)CSc1nnc(-c2ccccc2O)n1Cc1ccccc1,,"inconclusive: 14.1 µM [inhibitor, partial curve, poor fit]"
CCOC(=O)c1ccc(N2C(=O)C=CC2=O)cc1,,"inconclusive: 1.26 µM [inhibitor, full curve, poor fit]"
CC1=C(C(=O)Nc2ccccc2)C(c2ccccn2)n2ncnc2N1 (stereo not given),inactive: 7.9%,
Cc1ccc2c(CN3CCN(S(=O)(=O)c4ccccc4C(F)(F)F)CC3)cc(=O)oc2c1C,inactive: 6.73% [at 2.33 µM],
O=S(=O)(NCCCCCCNS(=O)(=O)c1c(F)cccc1F)c1ccc2c(c1)OCCO2,inactive: 21.9% [at 2.33 µM],
O=C(CCCN1C(=O)CCC1=O)Nc1ccccc1F,,active: 56.2 µM
COc1ccc(-c2cn(-c3ccc(C)cc3)c(S(=O)(=O)CC(=O)Nc3ccc(F)cc3)n2)cc1,,"inconclusive: 22.4 µM [inhibitor, single point]"
Cc1cccc(-c2cnn(-c3cccc([N+](=O)[O-])c3)c2N)c1,,"inconclusive: 56.2 µM [inhibitor, partial curve, poor fit]"
COC(=O)c1sc2nc(CN3CCOCC3)nc(N3CCOCC3)c2c1C,inconclusive: -60.6% [inhibitor],
CN(CCOc1ccc(F)cc1)Cc1ccccc1,,active: 10 µM
Cc1ccc(C(=O)OCC(=O)Nc2ccc3[nH]c(=O)[nH]c3c2)cc1S(=O)(=O)N1CCOCC1,,"inconclusive: 7.94 µM [inhibitor, full curve, poor fit]"
CCOC(=O)c1sc(=S)n(CC)c1N,,"inconclusive: 89.1 µM [inhibitor, single point]"
CCOC(=O)C1=C(C)OC(N)=C(C#N)C1c1cccc(C)c1 (stereo not given),inactive: 10.5% [at 0.501 µM],
CC1CCCCN1C(=O)CSc1n[nH]c(-c2ccccc2Cl)n1 (stereo not given),inactive: -4.53%,
Cc1ccc(C(=O)/C=C/c2ccccc2[N+](=O)[O-])cc1,,"inconclusive: 25.1 µM [inhibitor, single point]"
O=C(Oc1cccc(N2C(=O)CCC2=O)c1)C1CC(=O)N(c2ccc(Br)cc2)C1 (stereo not given),inconclusive: -73.2% [inhibitor],
CCN(Cc1ccccc1)S(=O)(=O)c1ccc(C(=O)N(CCCN(C)C)c2nc3c(C)c(C)ccc3s2)cc1,,active: 35.5 µM

Compound,"activity, negative = inhibition",Potency
COc1ccc(OC)c(NC(=O)CS(=O)(=O)Cc2nc(-c3ccccc3C)oc2C)c1,,"inconclusive: 3.98 µM [inhibitor, partial curve, poor fit]"
Cc1ccc(-n2c(C)n[nH]c2=S)cc1C,,active: 5.01 µM
Cc1ccccc1CN1C2=NCCCN2c2ccccc21,,"inconclusive: 25.1 µM [inhibitor, partial curve, poor fit]"
N#C/C(=C\c1ccc(-c2ccc(C(=O)O)cc2)o1)C(=O)Nc1ccccc1C(=O)O,,"inconclusive: 39.8 µM [inhibitor, single point]"
N#C/C(=C\C1CC=CCC1)c1nc2ccccc2[nH]1 (stereo not given),,"inconclusive: 56.2 µM [inhibitor, partial curve, poor fit]"
O=C(CN1CCC2(CC1)OCCO2)c1ccc2cc[nH]c2c1,inconclusive: -112% [inhibitor],
O=[N+]([O-])c1cccc(C2(O)COc3ccccc3O2)c1 (stereo not given),inactive: 9.54% [at 102 µM],
O=C(/C=C/c1ccccc1[N+](=O)[O-])c1ccccc1Br,,active: 39.8 µM
C[C@@H]1CC2[C@@H]3CC[C@H]4CC(=O)CC[C@]4(C)C3=CC[C@]2(C)[C@@]1(O)C(=O)CO (stereo not given in full),,active: 56.2 µM
CC1SC(c2ccc(Cl)cc2)NC1=O (stereo not given),,"inconclusive: 12.6 µM [inhibitor, partial curve, poor fit]"
CS(=O)(=O)N1N=C(c2ccco2)CC1c1ccco1 (stereo not given),,active: 70.8 µM
CC(C)N(C(=O)CSc1ccc(S(=O)(=O)N2CCCCC2)cn1)c1ccccc1,inactive: -3.43% [at 2.33 µM],
CC(=O)N1CCN(c2ccc(NCc3ccc(C(C)C)cc3)cc2)CC1,,active: 14.1 µM
CCCCCCc1ccc(N2C[C@H](Cc3ccccc3)[C@@H](CC(=O)Nc3ccccc3)C2=O)cc1,,"inconclusive: 89.1 µM [inhibitor, single point]"
CCOC(=O)C1=C(COC(=O)COc2ccc(C#N)cc2)NC(=O)NC1C (stereo not given),,"inconclusive: 31.6 µM [inhibitor, partial curve, poor fit]"
c1cncc(CSc2nnc3ccc(-c4ccncc4)nn23)c1,,"inconclusive: 31.6 µM [inhibitor, partial curve, poor fit]"
CC(=O)N(Cc1c(C)nn(-c2ccccc2)c1Cl)c1ccc(Cl)cc1,inactive: -1.33% [at 102 µM],
COc1cc2[nH]c(=S)nc(NCCC(C)C)c2cc1OC,,active: 17.8 µM
Cc1ccc(C(=O)N/C(=C/c2ccco2)C(=O)N2CCCCC2)cc1,,active: 50.1 µM
O=C(O)c1c(NC(=O)N2CCCC2)sc2c1CCCC2,,"inconclusive: 89.1 µM [inhibitor, single point]"
C=CCNC(=O)/C(C#N)=C/c1ccc(C(=O)O)cc1,,"inconclusive: 44.7 µM [inhibitor, partial curve, poor fit]"
CCOc1cc(N2CCOCC2)c(OCC)cc1NC(=O)CN1C(=O)NC2(CCc3ccccc32)C1=O (stereo not given),,"inconclusive: 28.2 µM [inhibitor, single point]"
